Test results: PubChem BioAssay AID588855 (National Center for Advancing Translational Sciences (NCATS), 2011)
The whole screen tested about 410,000 compounds, of which about 5,000 (1.2%) were called active. Inconclusive results, whose numbers are uncertain, are shown with a selection of clear calls. The call rests on the fitted dose curve; in most records, active means well fitted inhibition curve with a large enough effect; inconclusive means small, poorly fitted or top-dose-only effect; inactive means no such curve, though single readings can be large or run the other way. Potencies beside an inconclusive call are fits to weak or partial responses and may not hold up.

Assay: qHTS for Inhibitors of TGF-b; further: nearly all actives have a fitted effect of over 65% in size
Conditions: HepG2 CAGA-GFP TGF-b/SMAD3 reporter, GFP fluorescence, 18 h, TGF-beta stimulated, 500 pg/mL final; series mostly up to 46.1 µM
In short: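 Inhibition was scored as loss of TGF-beta-induced (500 pg/mL final, 18 hours, 37 degrees C) GFP in HEPG2 cells carrying a CAGA-GFP reporter, in DMEM with 1% FBS. Well GFP was summed per cell; Activity was normalised to unstimulated and stimulated DMSO wells, then concentration-response fitting.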
Potency means the concentration at half of the fitted maximal effect; tags describe the fitted curve by direction and shape.

SMILES | Potency
N/C(=N\OC(=O)c1cc([N+](=O)[O-])ccc1Cl)c1cccnc1 | inactive
c1ccc2c(c1)[nH]c1c(N3CCCC3)ncnc12 | inactive
N#Cc1cc(-c2ccccc2)[nH]c1-c1nccc2ccccc12 | inconclusive: 3.55 µM [inhibitor, partial curve]
CN(C)S(=O)(=O)c1cccc(C(=O)Nc2n[nH]c(C(F)(F)F)n2)c1 | inactive
N#CN=C1SCCS1 | inconclusive: 12.6 µM [inhibitor, partial curve]
CC(C)CC(=O)Nc1nc2ccc(S(C)(=O)=O)cc2s1 | inactive
COc1ccc(C(=O)NN(C)c2nc(-c3ccccc3)cc(C)c2S(C)(=O)=O)cc1 | inconclusive: 3.55 µM [inhibitor, full curve, poor fit]
CCCNC(=O)CCCCn1c(=S)[nH]c2c([nH]c3ccc(OC)cc32)c1=O | inactive
O=C(C[C@H]1C[C@H](C(=O)N2CCOCC2)[C@@]2(CCC3CCCC3)c3[nH]c4cc(-c5ccco5)ccc4c3CCN2C1=O)NCCN1CCOCC1 | inconclusive: 17.8 µM [inhibitor, partial curve, poor fit]
Cc1ccc(S(=O)(=O)NCCc2nnc3ccc(SCc4cccc(F)c4)nn23)cc1 | inconclusive: 11.2 µM [inhibitor, partial curve, poor fit]
CN(C)c1ccc(/C=C/c2ccnc3ccccc23)c(F)c1 | inconclusive: 35.5 µM [inhibitor, single point]
COc1ccc(-n2nnnc2C2CCN(S(=O)(=O)c3cc(Cl)ccc3OC)CC2)cc1 | inconclusive: 8.91 µM [inhibitor, partial curve]
CC(NC(=O)c1cccc(Nc2nc3ccccc3n3nnnc23)c1)c1ccccc1 (configuration not stated) | inconclusive: 6.31 µM [inhibitor, single point]
CCc1ccc(C(C(=O)NC2CCCC2)N(C(=O)c2csnn2)C2CC2)cc1 (configuration not stated) | inconclusive: 35.5 µM [inhibitor, single point]
O=C(O)c1ccccc1/C=N/N1CCN(C2c3ccccc3-c3ccccc32)CC1 | inactive
COc1ccc(OC)c(NC(=O)Nc2cccc(OCc3cc(=O)n4cc(C)ccc4n3)c2)c1 | inconclusive: 0.794 µM [inhibitor, partial curve, poor fit]
CC(C)(C)OC(=O)N1C[C@H](O)C[C@H]1C(=O)OCC(=O)c1ccc([N+](=O)[O-])cc1 | inactive
Cc1ccc(NC(=O)CSc2nnc(C)s2)c(C)c1 | inconclusive: 0.891 µM [inhibitor, full curve, poor fit]
COc1cccc(Nc2nc(-c3cccs3)nc3ccccc23)c1 | inconclusive: 35.5 µM [inhibitor, single point]
Cc1cccc(COCC(Cc2ccccc2)N2CCN(C(=O)c3cccc(C)c3)CCC2=O)c1 (configuration not stated) | inconclusive: 35.5 µM [inhibitor, partial curve, poor fit]
CCOC(=O)C1=CCN(S(=O)(=O)c2cccc(Cl)c2)C1c1ccc(C)cc1 (configuration not stated) | inconclusive: 14.1 µM [inhibitor, single point]
O=C1OCCN1c1c(-c2ccccc2)c(N2CCOCC2)nc2ccccc12 | inactive
Cc1cc(-c2ccc(S(=O)(=O)Nc3ccccc3C)cc2)on1 | inconclusive: 5.01 µM [inhibitor, partial curve]

SMILES | Potency
COc1ccc(-n2nnnc2C(c2cccs2)N2CCN(C/C=C/c3ccccc3)CC2)cc1 (configuration not stated) | inconclusive: 8.91 µM [inhibitor, partial curve]
Cn1c(Sc2ccc(Cl)cc2)c(C=O)c2ccccc21 | inconclusive: 20 µM [inhibitor, single point]
CN(C)CCNc1cccc2sc3ccc(O)cc3c(=O)c12 | active: 4.47 µM
CC(C)(C)c1ccc(C(=O)C[n+]2ccc(Cl)c3ccc(Cl)cc32)cc1 | inconclusive: 12.6 µM [inhibitor, partial curve, poor fit]
CCc1noc(C)c1C(=O)OCC(=O)NCc1ccccc1 | inactive
Cc1ccc(C(=O)NCC(C)NC(=O)c2ccc(C)c(C)c2)cc1C (configuration not stated) | inactive
CN(C)CCCN(C(=O)C1COc2ccccc2O1)c1nc2ccc(F)cc2s1 (configuration not stated) | inactive
N#C/C(=N\Nc1ccccc1Cl)C(=O)c1ccccc1 | inconclusive: 15.8 µM [inhibitor, partial curve, poor fit]
CCc1ccc(C(C)NC(=O)/C(C#N)=C\c2cn[nH]c2-c2ccccc2)cc1 (configuration not stated) | inconclusive: 31.6 µM [inhibitor, single point]
CCOC(=O)c1c(S(=O)(=O)N2CCC(C(=O)Nc3ccc(C)cn3)CC2)c(C)n(C)c1C | inactive
Cc1ccc(S(=O)(=O)N(C)C)cc1NC(=O)c1cncc(Br)c1 | inconclusive: 35.5 µM [inhibitor, single point]
Cc1ccc(OCC(=O)N(Cc2ccccc2)c2ccccn2)cc1 | inactive
CCC(C)NC(=O)CO/N=C/c1ccccc1OC(F)F (configuration not stated) | inconclusive: 14.1 µM [inhibitor, partial curve, poor fit]
C=C1C(=O)OC2C=C(CO)C3OC3C3OC3(C)CC(OC(=O)/C(=C/C)COC(C)=O)C12 (configuration not stated) | inconclusive: 22.4 µM [inhibitor, single point]
O=[N+]([O-])c1cccnc1N1CCN(c2ccc(F)cc2)CC1 | inconclusive: 7.94 µM [inhibitor, partial curve]
COc1ccc(CNC(=O)c2ccc3c(c2)N=C(C)c2c(C)ccc(C)c2S3)cc1 | inconclusive: 10 µM [inhibitor, partial curve]
O=C(c1ccc(Br)o1)N(Cc1ccccc1)Cc1ccccc1 | inconclusive: 17.8 µM [inhibitor, partial curve, poor fit]
CCCC[C@@H]1CCCO[C@@](C(=O)NCc2ccccn2)(C(F)(F)F)C1 | inconclusive: 12.6 µM [inhibitor, single point]
c1ccc2cc(CNCc3cccc4ccccc34)ccc2c1 | inconclusive: 20 µM [inhibitor, single point]
C=CCONC(=O)c1cc(OCC(F)(F)F)ccc1OCC(F)(F)F | inactive
CCN(CC)c1ccc(NC(=O)CN2CCN(S(=O)(=O)c3ccc(C(C)C)cc3)CC2)cc1 | inconclusive: 35.5 µM [inhibitor, single point]
O=C(Cn1ccc2cc(S(=O)(=O)N3CCCC3)ccc21)NCc1ccc(Cl)cc1 | inactive
Cc1ccc(-c2nc3ccc(Cl)cn3c2Cc2cccc(Cl)c2)cc1 | inconclusive: 12.6 µM [inhibitor, partial curve]

SMILES | Potency
CCOc1ccc(N2C(=O)c3[nH]nc(-c4ccccc4)c3C2c2ccc(O)c(OC)c2)cc1 (configuration not stated) | inconclusive: 35.5 µM [inhibitor, single point]
N/C(=N/O)c1nc(N2CCCCC2)nc(N2CCCCC2)n1 | inactive
CC(C)c1ccc(-c2c(C#N)c(N)nc(SCC(=O)N3CCCCC3)c2C#N)cc1 | inconclusive: 6.31 µM [inhibitor, single point]
COc1ccc(-n2cc(C(=O)NCCc3ccc(C)cc3)c3ccccc3c2=O)cc1 | inconclusive: 17.8 µM [inhibitor, single point]
OC(c1cccc(F)c1)c1ncc(-c2ccc(Oc3ccccc3)cc2)[nH]1 (configuration not stated) | inconclusive: 35.5 µM [inhibitor, single point]
CCOC(=O)C1(CCc2ccccc2)CCN(Cc2c(O)cccc2OC)CC1 | inconclusive: 35.5 µM [inhibitor, single point]
Nc1cccc(-c2nc3ccc(C(=O)c4ccccc4)cc3[nH]2)c1 | inconclusive: 17.8 µM [inhibitor, single point]
CC1CCCCN1C(=O)CSc1nc2ccccc2nc1Cc1ccccc1 (configuration not stated) | inconclusive: 35.5 µM [inhibitor, single point]
O=C(N/N=C/c1ccc2nccnc2c1)c1ccncc1 | inconclusive: 0.891 µM [inhibitor, full curve, poor fit]
COc1ccc(OC)c(CCNC(=O)c2ccc(CS(=O)(=O)c3ccc(Br)cc3)o2)c1 | inconclusive: 35.5 µM [inhibitor, single point]
Nc1cc(S(=O)(=O)Nc2ccccc2Cl)ccc1N1CCCCC1 | inconclusive: 25.1 µM [inhibitor, single point]
COc1ccc2nc(NC(=O)C3=NN(c4ccccc4)C(=O)CC3)sc2c1 | inactive
O=C(Nc1cccc(NC(=O)c2cccs2)c1)c1ccc([N+](=O)[O-])o1 | active: 5.62 µM
Cc1cccc(NC(=O)c2cc(-c3cccnc3)nc3c(C)cccc23)n1 | inconclusive: 35.5 µM [inhibitor, single point]
NC(c1csc(NC(=O)Nc2ccccc2Cl)n1)C1CCCCC1 (configuration not stated) | inconclusive: 17.8 µM [inhibitor, single point]
O=C(Nc1ccc2c(c1)OCO2)c1ccc([N+](=O)[O-])cc1[N+](=O)[O-] | inconclusive: 35.5 µM [inhibitor, single point]
Cc1ccc(OCC(=O)NNC(=S)NC(=O)c2ccc(Br)o2)c(C)c1 | inactive
O=C1C2C(c3ccccc3)CC=CC2[C@H](c2ccoc2)N1Cc1ccccc1 (some centres not stated) | inconclusive: 35.5 µM [inhibitor, single point]
Cc1nc2ccc(NC(=O)c3cc([N+](=O)[O-])cc([N+](=O)[O-])c3Cl)cc2s1 | inconclusive: 6.31 µM [inhibitor, single point]
CCc1nnc(NC(=O)c2ccc(S(=O)(=O)N3CCc4ccccc4C3)cc2)s1 | inactive
COC(=O)c1ccc(NCc2cc(O)ccc2O)cc1 | inconclusive: 15.8 µM [inhibitor, single point]
